{"source": "the RNAGym collection of RNA variant scans (doi:10.1073/pnas.2313332121)", "parents": {"B1": {"name": "TPR 5TU (parent)", "chain": "GGAUCUUCUCGAUCUAACAAAAAAGACAAAUCUGCCACAAAGCUUGAGAGCAUCUUCGGAUGCAGAGGCGGCAGCCUUCGGUGGCGCGAUAGCGCCAACGUUCUCAACUAUGACACGCAAAACGCGUGCUCCGUUGAAUGGAGUUUAUCAUG"}}, "note": "Variants at the background level are over-represented here."}
{"variants_of": "B1", "assay": "polymerase ribozyme fitness, log enrichment relative to wild type (log ratio); higher = more active; in vitro selection for triplet polymerase activity", "summary_of_the_method": "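The heterodimeric triplet polymerase ribozyme's subunits were each mutagenized into PCR-built libraries and transcribed. Every library was selected once, in triplicate, by annealing with a biotinylated primer, the partner subunit and triplets, incubating frozen at −7 °C, gel-excising extended constructs, capturing on streptavidin beads and running RT-PCR. Input and output libraries were Illumina-sequenced, with genotypes kept only at ≥10 input reads and ≥1 read per output. Fitness, from inverse-variance-weighted replicate averages, is the base-2 logarithm of genotype enrichment over wild-type enrichment.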"}
{"variant": "A3C C10G C57A G83A", "polymerase ribozyme fitness (log ratio)": -3.78}
{"variant": "A3C C14G A39C G81U C96U C105U A121U U134C U135C U148C", "polymerase ribozyme fitness (log ratio)": "≤ -4.2"}
{"variant": "A3C C27G G59A G81A C87G", "polymerase ribozyme fitness (log ratio)": "≤ -4.2"}
{"variant": "A3C C36U G83A", "polymerase ribozyme fitness (log ratio)": -3.09}
{"variant": "A3C C43U A89U G92A C125G", "polymerase ribozyme fitness (log ratio)": "≤ -4.2"}
{"variant": "A3C C43U G67C G86A", "polymerase ribozyme fitness (log ratio)": "≤ -4.2"}
{"variant": "A3C C69A C87G U146C C149U U151G", "polymerase ribozyme fitness (log ratio)": "≤ -4.2"}
{"variant": "A3C C85A U130A C132G", "polymerase ribozyme fitness (log ratio)": "≤ -4.2"}
{"variant": "A3C C85U G141C", "polymerase ribozyme fitness (log ratio)": -2.07}
{"variant": "A3C C93U A120C G133A", "polymerase ribozyme fitness (log ratio)": "≤ -4.2"}
{"variant": "A3C G11U C63U C76A C87G", "polymerase ribozyme fitness (log ratio)": "≤ -4.2"}
{"variant": "A3C G25U C57U G81A A120U G126C C132U U134G", "polymerase ribozyme fitness (log ratio)": "≤ -4.2"}
{"variant": "A3C G34A C96G", "polymerase ribozyme fitness (log ratio)": -3.63}
{"variant": "A3C G46C A49G G92A U104G A113U G124A A142U", "polymerase ribozyme fitness (log ratio)": "≤ -4.2"}
{"variant": "A3C G50C C75G G80A A110G A137C A147G A150G", "polymerase ribozyme fitness (log ratio)": "≤ -4.2"}
{"variant": "A3C G50U", "polymerase ribozyme fitness (log ratio)": -1.07}
{"variant": "A3C G58C C95G C129A A142C", "polymerase ribozyme fitness (log ratio)": "≤ -4.2"}
{"variant": "A3C G70C C87G C96G A107G U146G", "polymerase ribozyme fitness (log ratio)": "≤ -4.2"}
{"variant": "A3C G86U G92U C105G", "polymerase ribozyme fitness (log ratio)": "≤ -4.2"}
{"variant": "A3C U4A", "polymerase ribozyme fitness (log ratio)": 0.257}
{"variant": "A3C U4A U6A A29G G48U G62C G65C G92A U144A", "polymerase ribozyme fitness (log ratio)": "≤ -4.2"}
{"variant": "A3C U4A U6C U15C A17G C38U C54U C72U G86U C95U G126C G136C U139A G152A", "polymerase ribozyme fitness (log ratio)": "≤ -4.2"}
{"variant": "A3C U4A U6C U15C A17G C38U C54U C72U G86U U127G", "polymerase ribozyme fitness (log ratio)": "≤ -4.2"}
{"variant": "A3C U4G G58C C93U C149U", "polymerase ribozyme fitness (log ratio)": -3.55}
{"variant": "A3C U6A A20U A23U C87A G133C G136U", "polymerase ribozyme fitness (log ratio)": "≤ -4.2"}
{"variant": "A3C U6G A26U G67C G83C A106G C118A U145C C149G", "polymerase ribozyme fitness (log ratio)": "≤ -4.2"}
{"variant": "A3C U6G G84U U144A", "polymerase ribozyme fitness (log ratio)": "≤ -4.2"}
{"variant": "A3C U7A C51U U55A A97G U102G C105U", "polymerase ribozyme fitness (log ratio)": "≤ -4.2"}
{"variant": "A3C U7A U13G A60C G70C C79U", "polymerase ribozyme fitness (log ratio)": "≤ -4.2"}
{"variant": "A3C U7G A12U A28U C87U", "polymerase ribozyme fitness (log ratio)": "≤ -4.2"}
{"variant": "A3C U15C C18G A23C G48A A49C G50C G68C G92A C96G", "polymerase ribozyme fitness (log ratio)": "≤ -4.2"}
{"variant": "A3C U45G G50A G67C C85G A137G", "polymerase ribozyme fitness (log ratio)": "≤ -4.2"}
{"variant": "A3C U55G C87G", "polymerase ribozyme fitness (log ratio)": "≤ -4.2"}
{"variant": "A3C U56G C57G C116G", "polymerase ribozyme fitness (log ratio)": -2.89}
{"variant": "A3G A12C A24C A29U A41G A47U G83C A97U C129A U130C", "polymerase ribozyme fitness (log ratio)": "≤ -4.2"}
{"variant": "A3G A12G U56A C75U C76U C93U A97U", "polymerase ribozyme fitness (log ratio)": "≤ -4.2"}
{"variant": "A3G A16G A24C A49G G80C", "polymerase ribozyme fitness (log ratio)": "≤ -4.2"}
{"variant": "A3G A19U U55C G84A", "polymerase ribozyme fitness (log ratio)": -0.956}
{"variant": "A3G A21U U53A U78A C93U C108U", "polymerase ribozyme fitness (log ratio)": "≤ -4.2"}
{"variant": "A3G A22G U45G", "polymerase ribozyme fitness (log ratio)": "≤ -4.2"}
{"variant": "A3G A23C A91C C95U C99U C118G", "polymerase ribozyme fitness (log ratio)": "≤ -4.2"}
{"variant": "A3G A24C A41C A150C", "polymerase ribozyme fitness (log ratio)": "≤ -4.2"}
{"variant": "A3G A26C C63A G71A C105G A107G", "polymerase ribozyme fitness (log ratio)": "≤ -4.2"}
{"variant": "A3G A26C G68A G84C C96U C108U G136C", "polymerase ribozyme fitness (log ratio)": "≤ -4.2"}
{"variant": "A3G A29C C93U G124U", "polymerase ribozyme fitness (log ratio)": "≤ -4.2"}
{"variant": "A3G A29U U31G C105U C116G G124A", "polymerase ribozyme fitness (log ratio)": "≤ -4.2"}
{"variant": "A3G A39U C85G A97U G140C", "polymerase ribozyme fitness (log ratio)": "≤ -4.2"}
{"variant": "A3G A39U G59C G83U", "polymerase ribozyme fitness (log ratio)": -3.56}
{"variant": "A3G A40G C57A C72U C87A", "polymerase ribozyme fitness (log ratio)": "≤ -4.2"}
{"variant": "A3G A40U C69U G84C G143C", "polymerase ribozyme fitness (log ratio)": "≤ -4.2"}
{"variant": "A3G A41U A47G U101G G136U", "polymerase ribozyme fitness (log ratio)": "≤ -4.2"}
{"variant": "A3G A47U G88A A121C G140A", "polymerase ribozyme fitness (log ratio)": "≤ -4.2"}
{"variant": "A3G A49G U53A A106G G117A C123U", "polymerase ribozyme fitness (log ratio)": "≤ -4.2"}
{"variant": "A3G A52U C54U U77G A121G A122G A137G", "polymerase ribozyme fitness (log ratio)": "≤ -4.2"}
{"variant": "A3G C5A A26C C87A", "polymerase ribozyme fitness (log ratio)": "≤ -4.2"}
{"variant": "A3G C5U C14U U15C U55A G67C C87U G88U A110U", "polymerase ribozyme fitness (log ratio)": "≤ -4.2"}
{"variant": "A3G C8A U44A A47C U56A G84C C87G", "polymerase ribozyme fitness (log ratio)": "≤ -4.2"}
{"variant": "A3G C8G A73G C85U A91C G94U A122G G141C", "polymerase ribozyme fitness (log ratio)": "≤ -4.2"}
{"variant": "A3G C8G G46A U82C G92A C96G A122U C125U", "polymerase ribozyme fitness (log ratio)": "≤ -4.2"}
{"variant": "A3G C10G C35A G59C C96U A115U C116G C118G U134C G143U U146A", "polymerase ribozyme fitness (log ratio)": "≤ -4.2"}
{"variant": "A3G C14G A29C C93U A107U", "polymerase ribozyme fitness (log ratio)": "≤ -4.2"}
{"variant": "A3G C14G U55A U56A C85U", "polymerase ribozyme fitness (log ratio)": -4.18}
{"variant": "A3G C18U A39C G84A U111C C129A", "polymerase ribozyme fitness (log ratio)": "≤ -4.2"}
{"variant": "A3G C18U C27G A28U U78A", "polymerase ribozyme fitness (log ratio)": "≤ -4.2"}
{"variant": "A3G C27G C35U G80U", "polymerase ribozyme fitness (log ratio)": "≤ -4.2"}
{"variant": "A3G C35U U55A U104A A150G", "polymerase ribozyme fitness (log ratio)": "≤ -4.2"}
{"variant": "A3G C36U G80U C95A", "polymerase ribozyme fitness (log ratio)": "≤ -4.2"}
{"variant": "A3G C38U U45A U56A G58C G59U C75A U90C C93U C103G A138C", "polymerase ribozyme fitness (log ratio)": "≤ -4.2"}
{"variant": "A3G C51A U53G G58A A89U C96A A142C", "polymerase ribozyme fitness (log ratio)": "≤ -4.2"}
{"variant": "A3G C54G C87A A98C G133A", "polymerase ribozyme fitness (log ratio)": "≤ -4.2"}
{"variant": "A3G C54U C87A A89G C96A U102G C114A", "polymerase ribozyme fitness (log ratio)": "≤ -4.2"}
{"variant": "A3G C72A C75G C96U A98U", "polymerase ribozyme fitness (log ratio)": "≤ -4.2"}
{"variant": "A3G G25C A41C A49C U56A G86A U101G", "polymerase ribozyme fitness (log ratio)": "≤ -4.2"}
{"variant": "A3G G70A C96G C99U U127C", "polymerase ribozyme fitness (log ratio)": "≤ -4.2"}
{"variant": "A3G G70C C87A", "polymerase ribozyme fitness (log ratio)": "≤ -4.2"}
{"variant": "A3G G94C", "polymerase ribozyme fitness (log ratio)": -1.07}
{"variant": "A3G G94U C103U U127C U134C G136A", "polymerase ribozyme fitness (log ratio)": -3.9}
{"variant": "A3G U4A A39G U56A G74U C87U C96A A137U", "polymerase ribozyme fitness (log ratio)": "≤ -4.2"}
{"variant": "A3G U4A C38A A39C G59C G83U A137U", "polymerase ribozyme fitness (log ratio)": "≤ -4.2"}
{"variant": "A3G U4A U44A C54U G74C G88U G141C", "polymerase ribozyme fitness (log ratio)": "≤ -4.2"}
{"variant": "A3G U4G C32U U56A G74A G81A A120G", "polymerase ribozyme fitness (log ratio)": -0.184}
{"variant": "A3G U4G C93G A113C", "polymerase ribozyme fitness (log ratio)": "≤ -4.2"}
{"variant": "A3G U4G U15A C27U C38A C57G G92A A119U", "polymerase ribozyme fitness (log ratio)": "≤ -4.2"}
